The text below walks through data of patent US9873709B2 (priority 2013, dated 2018).

This assay addresses isolated recombinant JAK1 kinase domain (Homo sapiens (Human), UniProt P23458). The note with it: read-out: JAK1 Ki; isolated recombinant JAK1 kinase domain, 25 μM ATP.
Usually Ki stands for a dissociation constant, usually derived from enzyme kinetics or from competition with a known ligand. For `CCOC(=O)N1CC=C(c2cccn3nc(Nc4ccc(C(=O)N5CCOC6(CCCNC6)C5)cc4)nc23)CC1` (stereo not drawn) [Example 2-134, ethyl 4-[2-[4-(l-oxa-4,8-diazaspiro[5.5]undecane-4-carbonyl)anilino]-[1,2,4]triazolo[l,5-a]pyridin-8-yl]-3,6-dihydro-2H-pyridine-1-carboxylate], the Ki came out at 2.35 nM. On to `CCOC(=O)N1CC=C(c2cccn3nc(Nc4ccc(C(=O)N5CCC6(CCNC6)CC5)cc4)nc23)CC1` [Example 2-135, ethyl 4-[2-[4-(2,8-diazaspiro[4.5]decane-8-carbonyl)anilino]-[1,2,4]triazolo[1,5-a]pyridin-8-yl]-3,6-dihydro-2H-pyridine-1-carboxylate], for which the inhibition constant Ki was 2.99 nM. For `O=C(CCC(F)(F)F)N1CC=C(c2cccn3nc(Nc4ccc(C(=O)N5CCC6(CCNC6)CC5)cc4)nc23)CC1` [Example 2-136, 1-[4-[2-[4-(2,8-diazaspiro[4.5]decane-8-carbonyl)anilino]-[1,2,4]triazolo[1,5-a]pyridin-8-yl]-3,6-dihydro-2H-pyridin-1-yl]-4,4,4-trifluoro-butan-1-one] the value was 1.7 nM. In the case of `O=C(CCC(F)(F)F)N1CC=C(c2cccn3nc(Nc4ccc(C(=O)N5CCO[C@@H]6CNC[C@@H]65)cc4)nc23)CC1` [Example 2-139, 1-[4-[2-[4-[(4aS,7aR)-3,4a,5,6,7,7a-hexahydro-2H-pyrrolo[3,4-b][1,4]oxazine-4-carbonyl]anilino]-[1,2,4]triazolo[1,5-a]pyridin-8-yl]-3,6-dihydro-2H-pyridin-1-yl]-4,4,4-trifluoro-butane-1-one], the Ki stood at 1.18 nM. `O=C(CCC(F)(F)F)N1CC=C(c2cccn3nc(Nc4ccc(C(=O)N5CC(C6CCCNC6)c6ccccc65)cc4)nc23)CC1` (stereo not drawn) [Example 2-140, 4,4,4-trifluoro-1-[4-[2-[4-[3-(3-piperidyl)indoline-1-carbonyl]anilino]-[1,2,4]triazolo[1,5-a]pyridin-8-yl]-3,6-dihydro-2H-pyridin-1-yl]butan-1-one]: the inhibition constant Ki stood at 4.29 nM.

As to `CN(Cc1cccc2cccnc12)C(=O)c1ccc(Nc2nc3c(C4=CCN(C(=O)CCC(F)(F)F)CC4)cccn3n2)cc1` [Example 2-141, N-methyl-N-(8-quinolylmethyl)-4-[[8-[1-(4,4,4-trifluorobutanoyl)-3,6-dihydro-2H-pyridin-4-yl]-[1,2,4]triazolo[1,5-a]pyridin-2-yl]amino]benzamide], the Ki was determined as 2.99 nM.

As to `N#CCCN1CCN(C(=O)c2ccc(Nc3nc4c(C5=CCN(C(=O)CCC(F)(F)F)CC5)cccn4n3)cc2)CC1` [Example 2-142, 3-[4-[4-[[8-[1-(4,4,4-trifluorobutanoyl)-3,6-dihydro-2H-pyridin-4-yl]-[1,2,4]triazolo[1,5-a]pyridin-2-yl]amino]benzoyl]piperazin-1-yl]propanenitrile], the Ki came out at 1.18 nM. With `Cc1ccc(C2CCCN2C(=O)c2ccc(Nc3nc4c(C5=CCN(C(=O)CCC(F)(F)F)CC5)cccn4n3)cc2)nc1` (stereo not drawn) [Example 2-143, 4,4,4-trifluoro-1-[4-[2-[4-[2-(5-methyl-2-pyridyl)pyrrolidine-1-carbonyl]anilino]-[1,2,4]triazolo[1,5-a]pyridin-8-yl]-3,6-dihydro-2H-pyridin-1-yl]butan-1-one], the Ki turned out to be 0.91 nM. Consider `CN1CCN(C(=O)c2ccc(Nc3nc4c(C5=CCN(C(=O)CCC(F)(F)F)CC5)cccn4n3)cc2)CC(CO)C1` (stereo not drawn) [Example 2-144, 4,4,4-trifIuoro-1-[4-[2-[4-[6-(hydroxymethyl)-4-methyl-1,4-diazepane-1-carbonyl]anilino]-[1,2,4]triazolo[1,5-a]pyridin-8-yl]-3,6-dihydro-2H-pyridin-1-yl]butan-1-one], for which the inhibition constant Ki was 0.98 nM.

In the case of `O=C(CCC(F)(F)F)N1CC=C(c2cccn3nc(Nc4ccc(C(=O)N5Cc6cccnc6C5)cc4)nc23)CC1` [Example 2-146, 1-[4-[2-[4-(5,7-dihydropyrrolo[3,4-b]pyridine-6-carbonyl)anilino]-[1,2,4]triazolo[1,5-a]pyridin-8-yl]-3,6-dihydro-2H-pyridin-1-yl]-4,4,4-trifluoro-butan-1-one], the Ki is 1.63 nM.

Turning to `Cc1ccc(CNC(=O)c2ccc(Nc3nc4c(C5=CCN(C(=O)CCC(F)(F)F)CC5)cccn4n3)cc2)cn1` [Example 2-148, N-[(6-methyl-3-pyridyl)methyl]-4-[[8-[1-(4,4,4-trifluorobutanoyl)-3,6-dihydro-2H-pyridin-4-yl]-[1,2,4]triazolo[1,5-a]pyridin-2-yl]amino]benzamide], the Ki worked out at 0.44 nM. `CN1CCC(C2CCCCN2C(=O)c2ccc(Nc3nc4c(C5=CCN(C(=O)CCC(F)(F)F)CC5)cccn4n3)cc2)CC1` (stereo not drawn) [Example 2-149, 4,4,4-trifluoro-1-[4-[2-[4-[2-(1-methyl-4-piperidyl)piperidine-1-carbonyl]anilino]-[1,2,4]triazolo[1,5-a]pyridin-8-yl]-3,6-dihydro-2H-pyridin-1-yl]butane-1-one]: the Ki was found to be 0.87 nM. As to `CN1CCC(N(C(=O)c2ccc(Nc3nc4c(C5=CCN(C(=O)CCC(F)(F)F)CC5)cccn4n3)cc2)C2CC2)CC1` [Example 2-150, N-cyclopropyl-N-(1-methyl-4-piperidyl)-4-[[8-[1-(4,4,4-trifluorobutanoyl)-3,6-dihydro-2H-pyridin-4-yl]-[1,2,4]triazolo[1,5-a]pyridin-2-yl]amino]benzamide], the inhibitory constant (Ki) came to 1.25 nM.

For `O=C(CCC(F)(F)F)N1CC=C(c2cccn3nc(Nc4ccc(C(=O)N5CCN6CCCCC6C5)cc4)nc23)CC1` (stereo not drawn) [Example 2-151, 1-[4-[2-[4-(1,3,4,6,7,8,9,9a-octahydropyrido[1,2-a]pyrazine-2-carbonyl)anilino]-[1,2,4]triazolo[1,5-a]pyridin-8-yl]-3,6-dihydro-2H-pyridin-1-yl]-4,4,4-trifluoro-butan-1-one], the Ki came to 1.49 nM. Regarding `CN(CCc1ccccn1)C(=O)c1ccc(Nc2nc3c(C4=CCN(C(=O)CCC(F)(F)F)CC4)cccn3n2)cc1` [Example 2-152, N-methyl-N-[2-(2-pyridyl)ethyl]-4-[[8-[1-(4,4,4-trifluorobutanoyl)-3,6-dihydro-2H-pyridin-4-yl]-[1,2,4]triazolo[1,5-a]pyridin-2-yl]amino]benzamide], the Ki came to 1.67 nM. Turning to `O=C(CCC(F)(F)F)N1CC=C(c2cccn3nc(Nc4ccc(C(=O)N5CCN(CCO)CC5)cc4)nc23)CC1` [Example 2-153, 4,4,4-trifluoro-1-[4-[2-[4-[4-(2-hydroxyethyl)piperazine-1-carbonyl]anilino]-[1,2,4]triazolo[1,5-a]pyridin-8-yl]-3,6-dihydro-2H-pyridin-1-yl]butan-1-one], the Ki stood at 1.03 nM.

As to `O=C(CCC(F)(F)F)N1CC=C(c2cccn3nc(Nc4ccc(C(=O)N5CCOC(c6ccccn6)C5)cc4)nc23)CC1` (stereo not drawn) [Example 2-154, 4,4,4-trifluoro-1-[4-[2-[4-[2-(2-pyridyl)morpholine-4-carbonyl]anilino]-[1,2,4]triazolo[1,5-a]pyridin-8-yl]-3,6-dihydro-2H-pyridin-1-yl]butan-1-one], the Ki amounted to 0.91 nM. As for `O=C(CCC(F)(F)F)N1CC=C(c2cccn3nc(Nc4ccc(C(=O)N5CCC(c6cc7cccnc7[nH]6)CC5)cc4)nc23)CC1` [Example 2-155, 4,4,4-trifluoro-1-[4-[2-[4-[4-(1H-pyrrolo[2,3-b]pyridin-2-yl)piperidine-1-carbonyl]anilino]-[1,2,4]triazolo[1,5-a]pyridin-8-yl]-3,6-dihydro-2H-pyridin-1-yl]butan-1-one], the Ki came out at 1.51 nM. As for `O=C(CCC(F)(F)F)N1CC=C(c2cccn3nc(Nc4ccc(C(=O)N5CCC(c6ccccn6)CC5)cc4)nc23)CC1` [Example 2-156, 4,4,4-trifluoro-1-[4-[2-[4-[4-(2-pyridyl)piperidine-1-carbonyl]anilino]-[1,2,4]triazolo[1,5-a]pyridin-8-yl]-3,6-dihydro-2H-pyridin-1-yl]butan-1-one], the Ki turned out to be 0.56 nM. Consider `CC1CN(C2CCN(C(=O)c3ccc(Nc4nc5c(C6=CCN(C(=O)CCC(F)(F)F)CC6)cccn5n4)cc3)CC2)CC(C)O1` (stereo not drawn) [Example 2-157, 1-[4-[2-[4-[4-(2,6-dimethylmorpholin-4-yl)piperidine-1-carbonyl]anilino]-[1,2,4]triazolo[1,5-a]pyridin-8-yl]-3,6-dihydro-2H-pyridin-1-yl]-4,4,4-trifluoro-butan-1-one], for which the inhibition constant Ki was determined as 0.71 nM. The figure for `CN(C)[C@H]1CCN(C(=O)c2ccc(Nc3nc4c(C5=CCN(C(=O)CCC(F)(F)F)CC5)cccn4n3)cc2)C1` [Example 2-158, 1-[4-[2-[4-[(3S)-3-(dimethylamino)pyrrolidine-1-carbonyl]anilino]-[1,2,4]triazolo[1,5-a]pyridin-8-yl]-3,6-dihydro-2H-pyridin-1-yl]-4,4,4-trifluoro-butan-1-one] is 1.05 nM.

`CN1CCN(C(=O)C2CN(C(=O)c3ccc(Nc4nc5c(C6=CCN(C(=O)CCC(F)(F)F)CC6)cccn5n4)cc3)C2)CC1` [Example 2-159, 4,4,4-trifluoro-1-[4-[2-[4-[3-(4-methylpiperazine-1-carbonyl)azetidine-1-carbonyl]anilino]-[1,2,4]triazolo[1,5-a]pyridin-8-yl]-3,6-dihydro-2H-pyridin-1-yl]butan-1-one]: the Ki stood at 0.41 nM. `CN1CCC(N(C)C(=O)c2ccc(Nc3nc4c(C5=CCN(C(=O)C6CC6(C)C)CC5)cccn4n3)cc2)CC1` (stereo not drawn) [Example 2-160, 4-[[8-[1-(2,2-dimethylcyclopropanecarbonyl)-3,6-dihydro-2H-pyridin-4-yl]-[1,2,4]triazolo[1,5-a]pyridin-2-yl]amino]-N-methyl-N-(1-methyl-4-piperidyl)benzamide]: the Ki is 11.1 nM.

Turning to `CN1CCC(N(C)C(=O)c2ccc(Nc3nc4c(C5=CCN(C(=O)C6C(C)(C)C6(C)C)CC5)cccn4n3)cc2)CC1` [Example 2-161, N-methyl-N-(1-methyl-4-piperidyl)-4-[[8-[1-(2,2,3,3-tetramethylcyclopropanecarbonyl)-3,6-dihydro-2H-pyridin-4-yl]-[1,2,4]triazolo[1,5-a]pyridin-2-yl]amino]benzamide], the Ki stood at 8.38 nM.
